The results in this text go back to PubChem BioAssay AID463173 (ICCB-Longwood Screening Facility, Harvard Medical School, 2010).

About 1,700 (3.3%) of roughly 52,000 compounds were called active. No stated cut-off is given here; in the data, active means survival mostly below about 52% (no sharp cut-off); inactive means mostly above about 56%. The list shows a part of the results.

This assay concerns Wild type. Nature of the assay: S. aureus survival, RN4220 and DeltatarO strains – OD600, teichoic acid synthesis inhibitors, primary screen (AID 463173). Particulars: S. aureus RN4220 wild type/DeltatarO growth, OD600, 18 h, active compounds read low, screened at 18.75 µg/mL (by protocol).
`COc1cc(/C=C/C(=O)O)cc(S(=O)(=O)N2CCc3ccccc32)c1OC`: the survival is inactive: 107%. In the case of `COC(=O)c1cccc(-n2c(CCC(=O)O)ccc2-c2ccc(OC)cc2)c1` it was inactive: 72%; in that of `Cc1ccc(Cl)cc1NC(=O)C(C)n1nnc2sc(-c3ccccc3)cc2c1=O` (centres undefined), inactive: 89%. Next, `O=C(COc1ccc2oc3c(c2c1)CCCC3)Nc1ccc(Br)cc1`: inactive: 80%. In the case of `COc1ccc(Cn2c(SCc3ccc(C(=O)NC4CCCC4)cc3)nc3ccncc32)cc1` it was inactive: 80%; in that of `CCOC(=O)c1c(C)oc2ncnc(N3CCN(c4ccccc4OC)CC3)c12`, inactive: 73%.

In the case of `CN(C1CCCCC1)S(=O)(=O)Cc1ccccc1`, the survival is inactive: 94%.

For `C=CCNC(=O)C(C)Sc1nnc2c(n1)[nH]c1ccccc12` (centres undefined), the survival is inactive: 104%. In the case of `CCCOc1cccc(C(=O)Nc2cccc(NC(=O)c3ccc(C(C)(C)C)cc3)c2)c1` it was inactive: 76%; in that of `COc1cc(OC)cc(C(=O)Nc2ccccc2-c2nc3ccccc3s2)c1`, inactive: 41%. On to `CN(C)c1ccc(C(CNC(=O)c2ccc(C(C)(C)C)cc2)N2CCOCC2)cc1` (centres undefined), for which the survival is inactive: 88%. Take `COc1ccc2[nH]c(C)c(CCNS(=O)(=O)c3cc(F)ccc3OC)c2c1`: the survival is inactive: 87%. In the case of `COc1ccc(CCNC(=O)C2(c3cccs3)CCOCC2)cc1OC`, the survival was inactive: 91%. With `Cc1coc2cc3oc(=O)c(CCC(=O)NCc4ccc(Cl)cc4)c(C)c3cc12`, the survival is inactive: 88%.

On to `Cc1ccc(NCCOc2ccccc2)c(C)c1`, for which the survival is inactive: 107%. Consider `COc1ccc(-c2nc3c4ccccc4n(CC(=O)Nc4cc(F)ccc4F)c(=O)n3n2)cc1`, for which the survival was inactive: 77%.

In the case of `CCOc1ccc(OC(=O)c2cn(-c3ccc(C)cc3)c(=O)c3ccccc23)cc1`, the survival was inactive: 74%. In the case of `CCCCC(=O)Nc1ccccc1C(=O)OCc1cc(=O)n2nc(C3CCCCC3)sc2n1` it was inactive: 45%. Next, `COc1cc(-c2ccno2)ccc1S(=O)(=O)N1CCN(c2ccc(C(C)=O)cc2)CC1`: inactive: 60%; `COc1ccc(-c2cc(C(F)(F)F)n3nc(C(=O)Nc4cc(Cl)cc(Cl)c4)cc3n2)cc1`: inactive: 75%. In the case of `CCOC(=O)C1CCN(C(=O)Cn2nc(C)n3c(cc4cc(F)ccc43)c2=O)CC1` it was inactive: 75%; in that of `COc1ccc(N2CCN(S(=O)(=O)CCNC(=O)Cc3ccc(Cl)cc3)CC2)cc1`, inactive: 68%; in that of `CCn1cc(S(=O)(=O)c2cc(C)cc(C)c2)c(=O)c2cc(F)c(N3CCCC3)cc21`, inactive: 129%. For `CCOc1ccc(CCNC(=O)c2nnc(Cc3cc(OC)c(OC)c(OC)c3)o2)cc1OCC`, the survival is inactive: 85%. Next, `CCCCN1C(=O)CN(C2CCCCCC2)C(=O)C1c1ccc(OCCC)c(OC)c1` (centres undefined): inactive: 87%; `O=C(CCNc1n[nH]c(=O)[nH]c1=O)N1CCCCC1`: inactive: 101%. In the case of `COc1ccc(OC)c(NC(=O)CSC2=Nc3ccccc3C3=NC(CC(=O)NCc4ccc5c(c4)OCO5)C(=O)N23)c1` (centres undefined), the survival is inactive: 74%.

For `COc1cc(Cl)c(C)cc1NC(=O)c1sc2nc3n(c(=O)c2c1C)CCCCC3`, the survival is inactive: 84%.

On to `Cc1ccccc1Cn1c(=O)n(Cc2ccc(Cl)cc2)c(=O)c2cccnc21`, for which the survival was inactive: 82%. In the case of `Cn1c(SCc2ccc(C(F)(F)F)cc2)nc2c([nH]c3ccccc32)c1=O` it was inactive: 92%.

`O=c1cc(N2CCN(c3ccc(F)cc3)CC2)[nH]c(=O)n1-c1ccc(Br)cc1`: the survival was inactive: 130%. Next, `CCOC(=O)c1c(NC(=O)c2nc(SC(C)C)ncc2Cl)sc2c1CCCC2`: inactive: 89%; `COc1cc(NC(=O)N2CCC(CN3CCCC3)CC2)cc(OC)c1OC`: inactive: 71%. Regarding `COc1cc(C(=O)NCC(c2cccnc2)N2CCc3ccccc32)cc(OC)c1OC` (centres undefined), the survival was inactive: 83%. Take `CN(C)c1ccc(C(CNS(=O)(=O)c2ccccc2)N2CCc3ccccc32)cc1` (centres undefined): the survival is inactive: 80%.

With `Cc1ccc(C(=O)C2=C(O)C(=O)N(CCc3ccccc3)C2c2ccncc2)o1` (centres undefined), the survival was inactive: 106%.

Consider `CCN(CC)C(=O)Cn1c(=O)n(Cc2ccc(C(=O)NCc3ccccc3Cl)cc2)c(=O)c2ccccc21`, for which the survival was inactive: 115%. Consider `O=C(CN1CCCC1)N1N=C(c2cccs2)CC1c1cccs1` (centres undefined), for which the survival was inactive: 100%.

In the case of `CCOC(=O)c1c(-c2ccc(Br)cc2)csc1NC(=O)c1ccccc1F`, the survival was inactive: 73%. For `CC(C)OC(=O)/C(C#N)=C\c1cccs1`, the survival is inactive: 106%. Next, `O=C(CSc1nccn1-c1ccc(F)cc1)Nc1ccc(OC(F)(F)F)cc1`: inactive: 74%. For the compound `COc1cc(C2C(=O)N(C3CCCCC3)CC(=O)N2Cc2ccc(C)cc2)ccc1OC(C)C` (centres undefined), the survival was inactive: 80%. Next, `Cc1ccc[n+](CC(=O)c2cccs2)c1`: inactive: 103%; `O=C1CN(C(=O)c2ccccc2C(F)(F)F)C(c2ccccc2)c2cc(F)ccc2N1` (centres undefined): inactive: 66%; `COc1cc2c(cc1OC)C(COc1ccc3c(C)cc(=O)oc3c1)N(C(=O)c1ccc(Cl)cc1)CC2` (centres undefined): inactive: 69%. Turning to `O=C1[C@@H]2CSC(c3ccc(C(F)(F)F)cc3)N2C(=O)N1c1ccccc1` (some centres undefined), the survival was inactive: 77%. Turning to `CCCNc1c(NC(=O)c2ccc(OCCC)cc2)c(=O)oc2ccccc12`, the survival is inactive: 78%. `Cc1ccc2c(C)c(C(=O)N(Cc3ccc(Cl)cc3)C3CCS(=O)(=O)C3)oc2c1` (centres undefined): the survival was inactive: 55%. In the case of `Cc1ccccc1NC(=O)CCn1cnc2onc(-c3ccc(F)cc3)c2c1=O` it was inactive: 120%; in that of `CCC(C)(C)C1CCc2c(sc(NC(=O)C3c4ccccc4Oc4ccccc43)c2C(N)=O)C1` (centres undefined), inactive: 120%; in that of `COCCNC(=O)c1cn(Cc2cccc3ccccc23)nn1`, inactive: 115%.

As to `CN1CCC(OC(=O)c2ccco2)CC1`, the survival was inactive: 94%. In the case of `O=S(=O)(c1ccccc1)c1nc(-c2cccs2)oc1SCc1ccccc1F` it was inactive: 77%.

Take `Cc1ccc(C)c(N2CCN(CCCNC(=O)Cn3ncc4c5ccccc5n(C)c4c3=O)CC2)c1`: the survival is inactive: 80%. Next, `CCCCC(CC)CNC(=O)C1CCN(S(=O)(=O)c2cccc3nsnc23)CC1` (centres undefined): inactive: 96%; `Cc1ccc(C(C(=O)NC2CCCCC2)N(C(=O)Cc2c[nH]c3ccccc23)C2CC2)o1` (centres undefined): inactive: 100%; `CC(C)(C)NS(=O)(=O)c1ccc(-c2nnc(SCC(=O)c3ccc(F)cc3)o2)cc1`: inactive: 111%. Consider `CCOc1ccc(NC(=O)CCn2cnc3onc(-c4ccc(F)cc4)c3c2=O)cc1`, for which the survival is inactive: 53%. In the case of `Cc1ccc(NS(=O)(=O)c2c(C(=O)N3CCC(C)CC3)c(C)n(C)c2C)cc1Cl`, the survival was inactive: 131%. Take `COc1ccccc1N1CCN(C(=O)c2cc3c(=O)n(Cc4ccco4)ccc3nc2C)CC1`: the survival is inactive: 73%. For `N#Cc1nc(-c2ccc(COc3ccc(Cl)cc3)o2)oc1N1CCN(c2ccccc2)CC1`, the survival is inactive: 85%.

Take `CCOC(=O)c1c(S(=O)(=O)N2CCCC(C(=O)N3CCN(c4cccc(C)c4C)CC3)C2)c(C)n(C)c1C` (centres undefined): the survival was inactive: 70%. `c1ccc(-c2nc(N3CCCCC3)nc3ccccc23)cc1`: the survival was inactive: 99%. In the case of `COc1cccc(CNCC(=O)N2C(C)CCCC2C)c1` (centres undefined) it was inactive: 102%; in that of `O=C(CSc1nc2c(oc3ccccc32)c(=O)n1-c1ccccc1F)Nc1ccccc1`, inactive: 139%; in that of `Cc1ccc(CN2CCSc3ccc(C(=O)N4CCN(c5cc(C)ccc5C)CC4)cc32)cc1`, inactive: 20%.

On to `CC(=O)Nc1ccc(C(=O)CSc2nc3ccccc3n2CC(=O)N2CCCC2)cc1`, for which the survival is inactive: 102%. Next, `O=C(CSc1nnnn1Cc1ccccc1)NCCc1ccccc1`: inactive: 118%. In the case of `CC(C)CN1CCc2nc(N3CCN(C)CC3)ncc2C1` it was inactive: 84%; in that of `Cn1c(=O)cc(SCC(=O)N2CCN(c3ccc(F)cc3)CC2)c2ccc(Cl)cc21`, inactive: 84%; in that of `Cc1ccc(Nc2c3c(nc4nncn24)CCC3)cc1C`, inactive: 76%. For the compound `O=C(COc1ccccc1)Nc1ncn[nH]1`, the survival is inactive: 113%. In the case of `O=C(CN1C(=O)COc2ccc(S(=O)(=O)N3CCOCC3)cc21)NCc1ccc(F)cc1` it was inactive: 94%. In the case of `CCOC(=O)c1c(C)oc2nc(C)nc(NCc3ccc(Cl)cc3)c12` it was inactive: 90%; in that of `CCn1cc(C(=O)N2CCN(c3ccccc3F)CC2)c(=O)c2cc(S(=O)(=O)N(C)C3CCCCC3)ccc21`, inactive: 83%. As to `COc1cc(NC(=O)c2ccccc2)ccc1NC(=O)c1cc2ccccc2o1`, the survival is inactive: 85%. Next, `CC(C)NC(=O)c1nc2ccccc2s1`: inactive: 120%; `Cc1cccc(NC(=O)CSc2nc(-c3ccco3)nc3cc(=O)[nH]n23)c1`: inactive: 66%. As for `COc1ccc(-c2cc3ccc(O)c(CN4CCOCC4)c3oc2=O)cc1`, the survival is inactive: 89%. In the case of `CC(=O)N1CCc2cc(Br)cc(S(=O)(=O)N3CCC(C(=O)N(C)c4cc(C)ccc4C)CC3)c21` it was inactive: 84%; in that of `COc1ccc(-c2ccc3c(N)c(C(=O)NCc4ccc(Cl)cc4)sc3n2)cc1`, inactive: 107%; in that of `Cc1ccc(S(=O)(=O)N2CCNCC2)cc1`, inactive: 113%.

With `COC(=O)c1c(SC)nc2ccccc2c1OCc1ccccc1C`, the survival is inactive: 79%. Next, `O=C(CCn1c(=O)c2ccccc2n(Cc2ccc(F)cc2Cl)c1=O)NCc1ccc2c(c1)OCO2`: inactive: 91%; `CCc1ccc(NC(=O)C2CCN(S(=O)(=O)c3ccc4[nH]c5c(c4c3)CCCCC5)CC2)cc1`: inactive: 73%; `CCOC(=O)C1CCN(C(=O)C2CCN(C3=NS(=O)(=O)C(c4ccc(C)cc4)=C3CC)CC2)CC1`: inactive: 126%. In the case of `Cc1cccc(C)c1NC(=O)Cn1c(=O)n(CC2CCC(C(=O)NCCc3ccccc3)CC2)c(=O)c2ccccc21` (centres undefined) it was inactive: 143%. For the compound `CCOC(=O)c1noc2ncnc(Nc3ccc(F)cc3F)c12`, the survival is inactive: 127%.

Regarding `Cn1cc(S(=O)(=O)N2CCCCCC2)cc1C(=O)N1CCN(c2cccc(Cl)c2)CC1`, the survival is inactive: 54%.
